About 50,000 (12%) of roughly 420,000 compounds were called active. The inconclusive results got no clear call from the source; some entries with a clear call stand among them for comparison. Calls follow the shape of the dose curve; as a rule, active = well fitted inhibition curve with a large enough effect; inconclusive = small, poorly fitted or top-dose-only effect; inactive = flat fitted curve, though single readings scatter. Potencies of inconclusive entries are left out as doubtful fits.
experiment: qHTS for Inhibitors of human tyrosyl-DNA phosphodiesterase 1 (TDP1): qHTS in cells in presence of CPT; conditions: chicken DT40 Tdp1-/-;hTDP1 cells + 20 nM CPT, ATP luminescence, 48 h; activity change, negative = growth inhibition: at 46.2 µM (top of the series); also: nearly all actives have a fitted effect of over 55% in size
Procedure, shortened: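 Cell growth measured by CellTiter-Glo luminescence after a minimum 48 h, 37 C compound exposure with 20 nM CPT in Tdp1-knockout DT40 cells stably expressing hTDP1, seeded 400/well; qHTS titration format.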
% is scaled to controls: 0 for no effect and ±100 for the full control effect; potency is read from the fitted curve at half-maximal effect; tags tell the direction and shape of the fitted curve.

**Q.** With `Cc1ccc(C)c(S(=O)(=O)N2CCN(C(=O)CCNC(=O)c3ccc(Br)cc3)CC2)c1` as the compound, how does the Potency read?
**A.** active: 23.1 µM

**Q.** Which Potency does the source give for `Cc1cc(C)n(Cc2ccc(Cl)cc2Cl)c(=O)c1S(=O)(=O)c1ccccc1` here?
**A.** inconclusive [inhibitor, single point]

**Q.** With `CCCNC(=O)c1ccc(-n2c(-c3ccccc3)cc3c2CCC(C)C3)cc1` (configuration not stated) as the compound, how does the Potency read?
**A.** inconclusive [inhibitor, single point]

**Q.** For `CCO[C@@H]1OC(C(=O)N2CCN(Cc3ccc4c(c3)OCO4)CC2)=C[C@H](c2ccc(C(F)(F)F)cc2)[C@H]1CCCO`, which Potency is on record?
**A.** active: 16.4 µM

**Q.** With `N#Cc1ccc2[nH]c(CO)c(-c3ccccc3)c2c1` as the compound, how does the Potency read?
**A.** inconclusive [inhibitor, single point]

**Q.** With `COC(=O)C1CCN(Cc2cc(=O)oc3cc(OC)ccc23)CC1` as the compound, how does the Potency read?
**A.** inactive

**Q.** Which Potency does the source give for `C/C(=N\NC1=NCCN1)c1ccc(N)c([N+](=O)[O-])c1` here?
**A.** inactive

**Q.** For `COc1ccc2cc3cc(C(=O)N4CCCC(C)C4)oc3nc2c1` (configuration not stated), which Potency is on record?
**A.** inconclusive [inhibitor, single point]

**Q.** With `C/C(=N\Nc1ccccn1)c1ccc2c(c1)OCO2` as the compound, how does the Potency read?
**A.** active: 18.4 µM

**Q.** With `Cc1nc(-c2ccc(NC(=O)CC(C)C)cc2)cs1` as the compound, how does the Potency read?
**A.** inactive

**Q.** For `CCC(C)N=C1CC(C)(C)CC(=O)/C1=C(/O)Cc1ccccc1` (configuration not stated), which Potency is on record?
**A.** inconclusive [inhibitor, single point]

**Q.** For `CC1(C(=O)Nc2cnc3ccccc3c2)CCN1Cc1ccc2c(c1)OCCO2` (configuration not stated), which Potency is on record?
**A.** inconclusive [inhibitor, single point]

**Q.** Which Potency does the source give for `C=CCn1c(SCC(=O)NC2CCCc3ccccc32)nnc1-c1ccncc1` (configuration not stated) here?
**A.** inconclusive [inhibitor, single point]

**Q.** With `COc1ccc(CCNC(=O)CN(c2cc(OC)ccc2OC)S(=O)(=O)c2ccccc2)cc1` as the compound, how does the Potency read?
**A.** inconclusive [inhibitor, single point]

**Q.** With `COc1ccc(C(=O)Nc2ccc(NC(C)=O)cc2)cc1S(=O)(=O)N1CCCCC1C` (configuration not stated) as the compound, how does the Potency read?
**A.** inconclusive [inhibitor, single point]

**Q.** With `CC(CNC(=O)c1ccco1)NC(=O)c1ccco1` (configuration not stated) as the compound, how does the Potency read?
**A.** inactive

**Q.** For `O=c1cc(C(O)C[N+](=O)[O-])occ1OCc1ccccc1` (configuration not stated), which Potency is on record?
**A.** inactive

**Q.** With `Cc1cccc(N2CCN(C(=O)CS(=O)(=O)c3cccc4nsnc34)CC2C)c1` (configuration not stated) as the compound, how does the Potency read?
**A.** inconclusive [inhibitor, partial curve, poor fit]

**Q.** Which Potency does the source give for `COc1ccc(C)cc1NC(=O)c1sc2nc(C)nc(N3CCOCC3)c2c1C` here?
**A.** inactive

**Q.** Which Potency does the source give for `O=C(c1ccc(Cl)c(S(=O)(=O)NCc2ccco2)c1)N1CCN(c2ccc(F)cc2)CC1` here?
**A.** active: 16.4 µM

**Q.** For `Cc1cccc(C(=O)OCC(=O)N2CCCCCC2)c1O`, which Potency is on record?
**A.** inactive

**Q.** With `COc1ccccc1NS(=O)(=O)c1ccc(NC(C)=O)cc1` as the compound, how does the Potency read?
**A.** inactive

**Q.** For `COc1cccc(-c2cccc3c2NC(=O)C3(C)Cc2cccc(F)c2)c1` (configuration not stated), which Potency is on record?
**A.** inconclusive [inhibitor, single point]

**Q.** With `CC#CC[N+](C)(C)CCCCCC` as the compound, how does the Potency read?
**A.** inconclusive [inhibitor, single point]

**Q.** Which Potency does the source give for `CC(=O)Oc1ccc2c(=O)c(Oc3ccccc3)c(C)oc2c1OC(C)=O` here?
**A.** inconclusive [inhibitor, single point]

**Q.** Which Potency does the source give for `Cc1oc(C(=O)Nc2ccc(O)cc2)cc1COc1ccccc1` here?
**A.** inconclusive [inhibitor, single point]

**Q.** With `CC(C)Cc1ccc(C(C)NC(=O)Cc2ccc(S(=O)(=O)N3CCOCC3)s2)cc1` (configuration not stated) as the compound, how does the Potency read?
**A.** inconclusive [inhibitor, single point]

**Q.** With `CC1=C(C(=O)N2CCOCC2)CC(CC(=O)NC2CCCCC2)C(=O)N1Cc1ccc(C(C)(C)C)cc1` (configuration not stated) as the compound, how does the Potency read?
**A.** inconclusive [inhibitor, single point]

**Q.** For `C1=C/C(=C2/C=Cc3ccccc32)c2ccccc2N1`, which Potency is on record?
**A.** inconclusive [inhibitor, full curve, poor fit]

**Q.** Which Potency does the source give for `Cc1ccccc1-c1nc(CN2CCC(C(=O)N3CCN(c4ccccn4)CC3)CC2)c(C)o1` here?
**A.** active: 23.1 µM

**Q.** With `O=C(C(NS(=O)(=O)c1cccs1)c1ccccc1)N1CCN(c2ccccc2)CC1` (configuration not stated) as the compound, how does the activity change, negative = growth inhibition read?
**A.** inconclusive: -34.7% [inhibitor]

**Q.** With `O=C(CN1CCCC1)Nc1nc(-c2ccc3c(c2)CCN3C(=O)c2ccccc2F)cs1` as the compound, how does the Potency read?
**A.** inconclusive [inhibitor, single point]

**Q.** For `COC(=O)c1ccccc1NC(=O)c1ccc(NC(=O)C2CCCO2)cc1` (configuration not stated), which Potency is on record?
**A.** inactive

**Q.** Which Potency does the source give for `COc1ccc2[nH]cc(/C=C/C(=O)c3ccccc3)c2c1` here?
**A.** inconclusive [inhibitor, single point]

**Q.** For `Cn1c(=O)oc2cc(S(=O)(=O)CCC(=O)NCCc3ccc(Cl)cc3)ccc21`, which Potency is on record?
**A.** inactive

**Q.** With `N#Cc1c(-c2ccccc2Cl)cc(-c2ccccc2)nc1Br` as the compound, how does the Potency read?
**A.** inconclusive [inhibitor, single point]

**Q.** With `CN(C)S(=O)(=O)c1cccc(N=C2SCCN2Cc2ccccc2)c1` as the compound, how does the Potency read?
**A.** inconclusive [inhibitor, single point]

**Q.** With `CCOC(=O)C1CCN(Cc2cc(=O)oc3cc(C)c(Cl)cc23)CC1` as the compound, how does the Potency read?
**A.** inconclusive [inhibitor, single point]

**Q.** For `CC(C)(C)OC(=O)N1CCC(c2c(C(=O)N3CCCCC3)cnn2-c2ccccc2Cl)CC1`, which Potency is on record?
**A.** active: 18.4 µM

**Q.** With `O=P(COCCOCP(=O)(c1ccccc1)c1ccccc1)(c1ccccc1)c1ccccc1` as the compound, how does the Potency read?
**A.** inactive

**Q.** With `C=C1C(=O)OC2C[C@@]3(C)CCCC(=C)[C@@H]3CC12` (some centres not stated) as the compound, how does the Potency read?
**A.** active: 26.6 µM

**Q.** Which Potency does the source give for `COc1cccc(Oc2cnc(N)nc2-c2ccc(OC)cc2O)c1` here?
**A.** active: 2.91 µM

**Q.** For `Nc1ccc(/C=C/c2ccnc3ccccc23)cc1`, which Potency is on record?
**A.** active: 10 µM

**Q.** With `O=C(O)/C=C/c1cn(Cc2ccccc2Cl)nc1-c1ccccc1` as the compound, how does the Potency read?
**A.** inconclusive [inhibitor, single point]

**Q.** Which Potency does the source give for `COc1ccc(CN=C(C#N)C2=C(O)c3ccccc3C2=O)cc1` here?
**A.** inconclusive [inhibitor, single point]

**Q.** For `O=C(Nc1nccs1)c1ccc(CSc2nnnn2-c2ccccc2)cc1`, which Potency is on record?
**A.** active: 12.6 µM

**Q.** For `CCC(=O)Nc1cccc(C(=O)/C=C/c2cccs2)c1`, which Potency is on record?
**A.** inconclusive [inhibitor, single point]

**Q.** With `C=C(C)C1CC=C(C)/C(=N/NC(=O)c2ccc(NC(=O)c3cccc(C)c3)cc2)C1` (configuration not stated) as the compound, how does the Potency read?
**A.** inconclusive [inhibitor, single point]

**Q.** For `COc1ncc2nc(C)c(=O)n(-c3ccccc3)c2n1`, which Potency is on record?
**A.** inactive

**Q.** With `Cc1ccc(N2CCN(C(=O)N3CCCC3)CC2)cc1Cl` as the compound, how does the activity change, negative = growth inhibition read?
**A.** inconclusive: -34.6% [inhibitor]

**Q.** Which Potency does the source give for `COc1cccc(CNC(=O)[C@@H]2CCCN2C(=O)[C@H]2CCCCN2C(=O)c2cccs2)c1` here?
**A.** inactive

**Q.** Which Potency does the source give for `CN1CCN(C(=O)c2ccc(Cl)cc2)CC1` here?
**A.** inactive

**Q.** For `C=CC(C)Sc1nc2c(c(=O)n(C)c(=O)n2C)n1Cc1ccccc1Cl` (configuration not stated), which Potency is on record?
**A.** inconclusive [inhibitor, single point]

**Q.** For `COc1ccc(C(=O)NC(=S)NC(C)(C)C)cc1Br`, which Potency is on record?
**A.** inconclusive [inhibitor, single point]

**Q.** For `C=CCOc1c(Br)cc(/C=N\n2nnnc2N)cc1OC`, which Potency is on record?
**A.** inactive

**Q.** Which Potency does the source give for `CCOC(=O)c1c(C)[nH]c(N=Nc2ccccc2Cl)c1C` here?
**A.** inconclusive [inhibitor, single point]

**Q.** For `COc1cccc(CNC(=O)COC(=O)c2ccc(N3CCCC3=O)cc2)c1`, which Potency is on record?
**A.** inactive

**Q.** For `CCC(C)NS(=O)(=O)c1ccc(NC(=O)c2c(-c3ccccc3)noc2C)cc1` (configuration not stated), which Potency is on record?
**A.** inconclusive [inhibitor, single point]

**Q.** Which Potency does the source give for `COc1ccccc1Cc1c(-c2ccc(C)cc2)nc2ccc(Br)cn12` here?
**A.** active: 20.6 µM

**Q.** For `CC1(C)C(=O)OC(c2c3ccccc3cc3ccccc23)C(C)(C)C1=O` (configuration not stated), which Potency is on record?
**A.** inconclusive [inhibitor, single point]

**Q.** With `O=C([C@H]1O[C@@H](n2ccc(=O)[nH]c2=O)[C@H](O)[C@@H]1O)N(CCC1=CCCCC1)CC1CC1` as the compound, how does the activity change, negative = growth inhibition read?
**A.** inconclusive: -36.4% [inhibitor]

**Q.** Which Potency does the source give for `O=C(Cn1c(-c2ccccc2)noc1=O)Nc1ccc(N2CCCCCC2)cc1` here?
**A.** active: 15.8 µM

**Q.** With `CCc1nc2c(OCc3cccc(Cl)c3)cccn2c1N(C)C(=O)c1ccc(OC)cc1` as the compound, how does the Potency read?
**A.** inconclusive [inhibitor, single point]

**Q.** With `Cc1cc(C(=O)NNC(=O)COc2c(C)cc(Br)cc2C)n[nH]1` as the compound, how does the Potency read?
**A.** inactive

**Q.** Which Potency does the source give for `O=C(Nc1ccc(CN2CCCCC2)cc1)c1ccc(Br)o1` here?
**A.** inactive

**Q.** For `COc1ccc(NC(=O)N(Cc2cc3cc(OC)ccc3[nH]c2=O)CC2CCCO2)cc1` (configuration not stated), which Potency is on record?
**A.** inconclusive [inhibitor, partial curve]

**Q.** For `CCc1ccccc1N1C(=O)CC(Sc2nccc(C)n2)C1=O` (configuration not stated), which Potency is on record?
**A.** inconclusive [inhibitor, single point]

**Q.** Which Potency does the source give for `COc1ccccc1/C=C/C(=O)NCC(=O)N1CCC(N(C)C2CCCC2)CC1` here?
**A.** inconclusive [inhibitor, single point]

**Q.** With `COc1ccc(/C=C/C(=O)c2oc3ccc(F)cc3c2C)cc1` as the compound, how does the Potency read?
**A.** inconclusive [inhibitor, single point]

**Q.** For `CC(CCc1ccccc1)NC(=O)CN1CCN(Cc2ccc(Cl)cc2)C1=O` (configuration not stated), which Potency is on record?
**A.** inconclusive [inhibitor, single point]

**Q.** For `CN(Cc1nc2ccccc2n1C)S(=O)(=O)c1ccc(Cl)cc1`, which Potency is on record?
**A.** inconclusive [inhibitor, single point]

**Q.** With `COc1ccc(-c2nn(-c3ccccc3)cc2C2NC(=O)NC(C)=C2C(=O)OC(C)C)cc1Cl` (configuration not stated) as the compound, how does the Potency read?
**A.** inconclusive [inhibitor, single point]

Reference: PubChem BioAssay AID686979 (National Center for Advancing Translational Sciences (NCATS), 2013)
